This is an account of results in ChEMBL document CHEMBL4888484, “Replenishing the malaria drug discovery pipeline: Screening and hit evaluation of the MMV Hit Generation Library 1 (HGL1) against asexual blood stage Plasmodium falciparum ,using a nano luciferase reporter read-out” (2022).

Hit rate of the full screen: of about 150,000 compounds, about 540 (0.36%) showed an effect of 50% or more. This is one part of the list.

The experiment deals with Plasmodium falciparum. Description: Primary screen in NF54 nanoGlo assay, in single point, at 2uM, 72h; a lower Z score goes with more inhibition. The class given is functional, Erythrocyte. The note with it: timepoint 72 hour.
A word on the % Inhibition: it is the relative decrease from the control value, in per cent. For `Cc1cc(C(=O)N2CCC([C@H]3[C@@H](Oc4ccccc4)CN3C(C)C)CC2)nn1C`, the “% Inhibition” value was -11% and the Z score was 1.32.

In the case of `COCCn1cnc2cc(NC(=O)C3CCCCC3)cc(C(=O)N(C)[C@@H](C)c3nc(C)cs3)c21`, the “% Inhibition” value is -13% and the Z score is reported as 1.67.

Turning to `O=C(NCc1ccccc1)NC[C@H]1Cn2ccnc2CO1`, the “% Inhibition” value is 29% and the Z score is reported as -3.24.

In the case of `CCN(CC)C(=O)[C@@H]1C[C@@H](n2cc(C3CCCCC3)nn2)CN1`, the “% Inhibition” value is on record as -23% and the Z score worked out at 2.44.

With `COCc1nc(N(C)CCn2cccn2)c2c(-c3ccccc3)csc2n1`, the “% Inhibition” value was -1% and the Z score came out at 0.15.

Regarding `CCCc1nc(NC(=O)N[C@@H](C)Cn2cncn2)sc1CC`, the “% Inhibition” value was determined as 4% and the Z score was -0.54.

For `O=C(c1ccncc1)N1N=CC[C@]1(O)C(F)(F)F`, the “% Inhibition” value was -2% and the Z score amounted to 0.43.

With `N#Cc1cc(Br)cc(F)c1N`, the “% Inhibition” value was -8% and the Z score is on record as 0.98.

Consider `CCN1C(=O)Cc2cc(NC(=O)COc3ccccc3C)ccc21`, for which the “% Inhibition” value is given as -2% and the Z score is 0.37.

For `CCN(CC)Cc1cccc(NC(=O)c2ccc3c(c2)NC(=O)CN3C)c1`, the “% Inhibition” value is reported as -10% and the Z score was 1.97.

`Cc1noc(C2CCN([C@@H](C)CCc3ccccc3)CC2)n1`: the “% Inhibition” value was -8% and the Z score is given as 1.09.

For `O=C(c1ccc(Cl)cc1OC1CCN(C[C@H]2CCOC2)CC1)N1CCCCC1`, the “% Inhibition” value is -7% and the Z score was 1.01.

In the case of `C[C@H]1Cc2cc(NC(=O)CCN3CCN(C)CC3)ccc2O1`, the “% Inhibition” value was found to be 0% and the Z score was determined as 0.02.

Take `CCn1cc(S(=O)(=O)NCc2noc(C(C)C)n2)c(C)n1`: the “% Inhibition” value was 1% and the Z score is -0.16.

With `O=C(Cc1ccc(Cl)c(Cl)c1)Nc1ccc(-n2cncn2)cn1`, the “% Inhibition” value was determined as 0% and the Z score was 0.04.

`CCc1ncc(-c2nc(CC3CCN(C)CC3)nn2CC(F)(F)F)cn1`: the “% Inhibition” value was found to be 9% and the Z score is on record as -1.53.

Turning to `O=C(NCc1ccco1)c1ccc(Oc2ccccc2)cc1`, the “% Inhibition” value is listed as -5% and the Z score was 0.88.

With `Cn1ccc(-c2nnc(NC(=O)COc3ccccc3)o2)n1`, the “% Inhibition” value is recorded as -12% and the Z score was found to be 1.94.

In the case of `CCCOc1ccc(Br)cc1S(=O)(=O)N[C@@H](C)CC`, the “% Inhibition” value is listed as -2% and the Z score stood at 0.21.

On to `CCC(CC)(CNC[C@@H]1CC=CCC1)S(C)(=O)=O`, for which the “% Inhibition” value is -6% and the Z score amounted to 0.6.

Regarding `O=C1CCC2(CCN(C3Cc4ccccc4C3)CC2)CN1CCc1ccncc1`, the “% Inhibition” value is -7% and the Z score came out at 1.41.

Turning to `O=C(O)C[C@H]1COCCN1Cc1ccc(-c2cccc(Cl)c2Cl)o1`, the “% Inhibition” value came out at 2% and the Z score was -0.2.

On to `C[C@H](NS(=O)(=O)c1ccc2[nH]c(=O)n(C)c(=O)c2c1)c1nncn1C`, for which the “% Inhibition” value is recorded as -21% and the Z score is 2.75.

Regarding `CCc1nc(CNC(=O)N2CCC[C@H](c3nc4ccccc4n3C)C2)no1`, the “% Inhibition” value was -3% and the Z score is recorded as 0.66.

With `CC(C)N1Cc2cc(C(=O)NC3CCCCCC3)sc2C1`, the “% Inhibition” value came out at 6% and the Z score is -1.09.

Take `COc1ccccc1OCc1n[nH]c(Cc2c(C)noc2C)n1`: the “% Inhibition” value is given as -1% and the Z score worked out at 0.14.

With `CS(=O)(=O)N1CC[C@H](S(=O)(=O)c2ccccc2)C1`, the “% Inhibition” value is -8% and the Z score came to 1.29.

On to `C[C@H]1CN(S(=O)(=O)c2ccc3c(c2)CCO3)CCO1`, for which the “% Inhibition” value is reported as -14% and the Z score came out at 1.27.

Consider `C[C@H](Nc1cnn(C)c1)C(=O)NCCC1=CCCCC1`, for which the “% Inhibition” value is reported as -1% and the Z score was 0.17.

For the compound `O=C(c1ccco1)N1CCC(n2cc(C3CCCC3)nn2)CC1`, the “% Inhibition” value is -5% and the Z score amounted to 0.98.

For the compound `CC(NC(=O)OC(C)(C)C)C(O)c1ccc(F)c(F)c1` (stereo not drawn), the “% Inhibition” value is -7% and the Z score is recorded as 0.97.

With `Cc1cc(NC(=O)N2CCN[C@@H]3CS(=O)(=O)C[C@@H]32)n(C2CCCCC2)n1`, the “% Inhibition” value was determined as 1% and the Z score is given as -0.23.

Turning to `Cn1cc(-c2ccccc2CNC(=O)C2(N3CCOCC3)CCC2)cn1`, the “% Inhibition” value is given as 1% and the Z score is reported as -0.15.

For `CC1(NC(=O)OC(C)(C)C)CCC(N[C@H]2CCc3nccn3C2)CC1` (stereo partly drawn), the “% Inhibition” value is on record as -1% and the Z score is 0.21.

As to `O=C(NCC1COCCO1)N1CCCC1c1ccncc1` (stereo not drawn), the “% Inhibition” value worked out at 10% and the Z score is recorded as -1.3.

`Cc1nc(C(=O)Nc2ccccc2N(C)C(C)C)c(C)o1`: the “% Inhibition” value is given as -42% and the Z score is listed as 4.92.

Consider `O=C(NCCN1CCCC[C@@H]1CO)c1ccc(-c2cc(F)ccc2O)cc1`, for which the “% Inhibition” value came to 6% and the Z score is -0.81.

For the compound `Cc1nc(N)nc(-c2cccc(C(=O)NCC(=O)N(C)C)c2)c1Cl`, the “% Inhibition” value is on record as -9% and the Z score is reported as 1.82.

Turning to `COc1cc(-c2n[nH]cc2CN(C[C@H]2CCC(=O)N2)C(C)C)cc(OC)c1OC`, the “% Inhibition” value was -18% and the Z score was found to be 1.93.

Take `Cc1cncn1CC(=O)N1CCCS(=O)(=O)C[C@H]1c1ccccc1`: the “% Inhibition” value was -2% and the Z score amounted to 0.3.

Consider `CN(Cc1noc(C2CCCC2)n1)C(=O)Cc1n[nH]c(=O)[nH]1`, for which the “% Inhibition” value is -9% and the Z score is 1.61.

Consider `O=C(NCc1ccno1)c1cccc(Br)c1Cl`, for which the “% Inhibition” value is -8% and the Z score was determined as 1.12.

On to `CCCOCCCNC(=O)c1c(C)noc1-c1cccnc1`, for which the “% Inhibition” value is listed as -10% and the Z score was found to be 1.05.

With `O=C(NC1CCCC1)C1CCN(c2cncnc2N2CCOCC2)CC1`, the “% Inhibition” value was -1% and the Z score is 0.26.

Regarding `CNC(=O)[C@@H]1C[C@H](Oc2ccccc2)CN1C1CCN(C(=O)CCn2cc(C)cn2)CC1`, the “% Inhibition” value is -4% and the Z score amounted to 0.51.

Consider `CC(C)[C@@H]1NC(=O)N(CC(=O)N2CCCCC2)C1=O`, for which the “% Inhibition” value was -8% and the Z score was 0.86.

Consider `O=c1[nH]c(N2CCOCC2)nc2nccc(-c3ccc(-c4ccccc4)cc3)c12`, for which the “% Inhibition” value is on record as -13% and the Z score amounted to 1.82.

With `O=C(NCc1cccc(COc2ccccc2)c1)C1CCCCC1`, the “% Inhibition” value was -11% and the Z score was 2.08.

For `Cc1c(Cl)cccc1S(=O)(=O)N1CC(Oc2cccnc2)C1`, the “% Inhibition” value is -1% and the Z score was found to be 0.21.

In the case of `Cc1cccc(CN2C(=O)OC(c3ccc(NC(=O)C(C)C)cc3)C2C(=O)Nc2ccccc2)c1` (stereo not drawn), the “% Inhibition” value was -11% and the Z score amounted to 1.15.

On to `OCc1cccc(NCc2ccc3cn[nH]c3c2)c1`, for which the “% Inhibition” value is reported as -1% and the Z score came out at 0.07.

`O=C(c1coc(COc2ccc(F)cc2Cl)n1)N1CCCC1`: the “% Inhibition” value is recorded as -28% and the Z score is listed as 2.48.

In the case of `CCC1=NO[C@@H](CNC(=O)c2cccc(-c3n[nH]c4cccc(C)c34)c2)C1`, the “% Inhibition” value was -7% and the Z score is on record as 0.97.

For the compound `N[C@@H]1C[C@@H]2CC(c3nc(C4(c5ccccc5)CCC4)no3)C[C@@H]21` (stereo partly drawn), the “% Inhibition” value is given as -1% and the Z score was 0.1.
